Target: the molecule itself
Assay: cross-linking

B1: CLEC-2 (C-type lectin receptor) on human platelets (receptor)
chain: not shown
modifications: differentially glycosylated (30 and 40kDa forms)
  stoichiometry N: 2

Reference: article PMC4361903 (Blood, 2010)
